9 variants from the supplement of paper PMC12217912 can be followed below.

The list shows a part of the results. Sequences were assembled here from the parent chain. Inactive controls read about 0.05.

The labels stand for the following.
B1: TEV protease; numbered along this chain (parent)
chain: MGESLFKGPRDYNPISSSICHLTNESDGHTTSLYGIGFGPFIITNKHLFRRNNGTLVVQSLHGVFKVKDTTTLQQHLVDGRDMIIIRMPKDFPPFPQKLKFREPQREERICLVTTNFQTKSMSSMVSDTSCTFPSGDGIFWKHWIQTKDGQCGSPLVSTRDGFIVGIHSASNFTNTNNYFTSVPKNFMELLTNQEAQQWVSGWRLNADSVLWGGHKVFMVKPEEPFQPVKEATQL
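Note: Bxb1 expression induced with 0.2% (w/v) L-rhamnose at OD600 near 0.5, cultures sampled hourly, flipped fraction per protease–substrate barcode pair counted by paired-end Illumina sequencing.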

The assay covers variants of B1. Kind of assay: raw area under fraction-flipped curve 0-4 h after induction (AUC4h, not background-subtracted), DNA-recorder readout of cleavage of the substrate (dimensionless); higher = more cleavage of the substrate by the protease variant. The following applies: temperature: 34 °C; time window: 0-4 h after rhamnose induction.
For MGESLFKGPRDYNPISSSICHLTNESDGHTTSLYGIGFGPFIITNKHLFRRNNGTLVVQSLHGVFKVKDTTTLQQHLVDGRDMIIIRMPKDFPPFPQKLKFREPQREERICLVCTNFQTKSMSSMVSDTSCTFPSGDGIFWKHWIQTKDGQCGSPLVSTRDGFIVGIHSASNFTNTNNYFTSVPKNFMELLTNQEAQQWVSGWRLNADSVLWGGHKVFMVKPEEPFQPVKEATQL [T114C], the “area with substrate ENLYFGS” value is 0.0671, the “area with substrate ENLYFKS” value was 0.0592, the “area with substrate ENLYFPS” value worked out at 0.0697 and the “area with substrate ENLYFRS” value is 0.0644. Besides, the “area with substrate ENLYFYS” value was 0.0637.
For the variant MGESLFKGPRDYNPISSSICHLTNESDGHTTSLYGIGFGPFIITNKHLFRRNNGTLVVQSLHGVFKVKDTTTLQQHLVDGRDMIIIRMPKDFPPFPQKLKFREPQREERICLVTTNFQTKSMSSMVSDTSCTFPSGDGIFWKHWIQTKDGQCGSPLVSTRDGFIVGIHSASNFTVTNNYFTSVPKNFMELLTNQEAQQWVSGWRLNADSVLWGGHKVFMVKPEEPFQPVKEATQL [N175V], the “area with substrate ENLYFFS” value is 0.0725, the “area with substrate ENLYFGS” value worked out at 0.0514, the “area with substrate ENLYFHS” value worked out at 0.064 and the “area with substrate ENLYFIS” value turned out to be 0.0522. Also, the “area with substrate ENLYFPS” value is 0.0554, the “area with substrate ENLYFRS” value was found to be 0.0673, the “area with substrate ENLYFSS” value was 0.0517 and the “area with substrate ENLYFTS” value is 0.0597. The “area with substrate ENLYFWS” value was 0.0462.
On to MGESLFKGPRDYNPISSSICHLTNESDGHTTSLYGIGFGPFIITNKHLFRRNNGTLVVQSLHGVFKVKDTTTLQQHLVDGRDMIIIRMPKDFPPFPQKLKFREPQREERICLVTTNFQTKSMSSMVSDTSCTFPSGDGIFWKHWIQTKDGQCGSPLVSTRDGFIVGIHSASNFTNTNNYFTSVPKNFMELLTNQEAQQWVSGWRLNADSVLWGGHKVFMVKPEEPFQPVKPATQL [E231P], for which the “area with substrate ENLYFES” value was 0.0925, the “area with substrate ENLYFFS” value is 0.0575, the “area with substrate ENLYFIS” value turned out to be 0.053 and the “area with substrate ENLYFKS” value was found to be 0.0445. Further, the “area with substrate ENLYFMS” value was 0.0804, the “area with substrate ENLYFNS” value came out at 0.0464, the “area with substrate ENLYFPS” value came to 0.0608 and the “area with substrate ENLYFSS” value is 0.0577. In addition, the “area with substrate ENLYFYS” value is 0.0666.
For the variant MGESLFKGPRDYNPISSSICHLTNESDGHTTSLYGIGFGPFIITNKHLFRRNNGTLVVQSLHGVFKVKDTTTLQQHLVDGRDMIIIRMPKDFPPFPQKLAFREPQREERICLVTTNFQTKSMSSMVSDTSCTFPSGDGIFWKHWIQTKDGQCGSPLVSTRDGFIVGIHSASNFTNTNNYFTSVPKNFMELLTNQEAQQWVSGWRLNADSVLWGGHKVFMVKPEEPFQPVKEATQL [K100A], the “area with substrate ENLYFFS” value worked out at 0.0549, the “area with substrate ENLYFIS” value stood at 0.0399, the “area with substrate ENLYFMS” value is 0.0674 and the “area with substrate ENLYFPS” value stood at 0.0371. For the same variant, the “area with substrate ENLYFRS” value worked out at 0.0542.
As for MGESLFKGPRDYNPISSSICHLTNESDGHTTSLYGIGFGPFIITNKHLFRRNNGTLVVQSLHGVFKVKDTTTLQQHLVDGRDMIIIRMPKDFPPFPQKLKFREPQREERICLVTTNFQTKSMSSMVSDTSCTFPSGDGIFWKHWIQTKDGQCGSPLVSTRDGFIVGIHSASNFTNTNNYFTSVPKNFMELLTNQEAQQWVSGWRLNADSVLWGGHKVFMVKPEEPFQEVKEATQL [P228E], the “area with substrate ENLYFFS” value was 0.0735, the “area with substrate ENLYFIS” value is 0.0546, the “area with substrate ENLYFKS” value was found to be 0.0872 and the “area with substrate ENLYFLS” value amounted to 0.0738. Also, the “area with substrate ENLYFMS” value was found to be 0.0682, the “area with substrate ENLYFPS” value is 0.044, the “area with substrate ENLYFRS” value was determined as 0.0718 and the “area with substrate ENLYFSS” value was 0.0746. Besides, the “area with substrate ENLYFVS” value amounted to 0.0655.
For MGESLFKGPRDYNPISSSICHLTNESDGHTTSLYGIGFGPFIITNKHLFRRNNGTLVVQSLHGVFKVKDTTTLQQHLVDGRDMIIIRMPKDFPPFPQKLKFREPQREERICLVTTNFQTKSMSSMVSDTSYTFPSGDGIFWKHWIQTKDGQCGSPLVSTRDGFIVGIHSASNFTNTNNYFTSVPKNFMELLTNQEAQQWVSGWRLNADSVLWGGHKVFMVKPEEPFQPVKEATQL [C131Y], the “area with substrate ENLYFFS” value was 0.0706.
MGESLFKGPRDYNPISSSICHLTNESDGHTTSLYGIGFGPFIITNKHLFRRNNGTLVVQSLHGVFKVKDTTTLQQHLVDGRDMIIIRMPKDFPPFPQKLKFREPQREERICLVTSNFQTKSMSSMVSDTSCTFPSGDGIFWKHWIQTKDGQCGSPLVSTRDGFIVGIHSASNFTNTNNYFTSVPKNFMELLTNQEAQQWVSGWRLNADSVLWGGHKVFMVKPEEPFQPVKEATQL [T115S]: the “area with substrate ENLYFFS” value stood at 0.0691, the “area with substrate ENLYFHS” value worked out at 0.0682, the “area with substrate ENLYFIS” value is 0.0666 and the “area with substrate ENLYFKS” value came to 0.0606. In addition, the “area with substrate ENLYFMS” value was 0.0614, the “area with substrate ENLYFNS” value came to 0.0538, the “area with substrate ENLYFPS” value was 0.0631 and the “area with substrate ENLYFTS” value came out at 0.08. In addition, the “area with substrate ENLYFVS” value came to 0.0642, the “area with substrate ENLYFWS” value was 0.0698 and the “area with substrate ENLYFYS” value is 0.0521.
Turning to MGESLFKGPRDYNPISSSICHLTNESDGHTTSLYGIGFGPFIITNKHLFRRNNGTLVVQSLHGVFKVKDTTTLQQHLVDGRDMIIIRMPKDFPPFPQKLKFREPQREERICLVTVNFQTKSMSSMVSDTSCTFPSGDGIFWKHWIQTKDGQCGSPLVSTRDGFIVGIHSASNFTNTNNYFTSVPKNFMELLTNQEAQQWVSGWRLNADSVLWGGHKVFMVKPEEPFQPVKEATQL [T115V], the “area with substrate ENLYFES” value is 0.0591, the “area with substrate ENLYFFS” value turned out to be 0.07, the “area with substrate ENLYFGS” value was found to be 0.0613 and the “area with substrate ENLYFHS” value came to 0.05. The “area with substrate ENLYFIS” value is 0.0566, the “area with substrate ENLYFKS” value worked out at 0.0678, the “area with substrate ENLYFMS” value was found to be 0.0658 and the “area with substrate ENLYFPS” value was determined as 0.0673. For the same variant, the “area with substrate ENLYFSS” value came out at 0.0786, the “area with substrate ENLYFTS” value stood at 0.0644 and the “area with substrate ENLYFYS” value came out at 0.0594.
Turning to MGESLFKGPRDYNPISSSICHLTNESDGHTTSLKGIGFGPFIITNKHLFRRNNGTLVVQSLHGVFKVKDTTTLQQHLVDGRDMIIIRMPKDFPPFPQKLKFREPQREERICLVTTNFQTKSMSSMVSDTSCTFPSGDGIFWKHWIQTKDGQCGSPLVSTRDGFIVGIHSASNFTNTNNYFTSVPKNFMELLTNQEAQQWVSGWRLNADSVLWGGHKVFMVKPEEPFQPVKEATQL [Y34K], the “area with substrate ENLYFFS” value was found to be 0.0794, the “area with substrate ENLYFIS” value is 0.0612, the “area with substrate ENLYFNS” value amounted to 0.0561 and the “area with substrate ENLYFPS” value was 0.0556. The “area with substrate ENLYFRS” value came out at 0.0684, the “area with substrate ENLYFSS” value was found to be 0.069 and the “area with substrate ENLYFVS” value amounted to 0.0441.
